Test results from PubChem BioAssay AID588855 (National Center for Advancing Translational Sciences (NCATS), 2011).
The campaign covered roughly 410,000 compounds. About 5,000 (1.2%) were called active. Inconclusive means that the source gave no clear call. Such entries were picked first, then a sample of the others. Calls follow the shape of the dose curve; as a rule, active = well fitted inhibition curve with a large enough effect; inconclusive = small, poorly fitted or top-dose-only effect; inactive = no such curve, though single readings can be large or run the other way. Where the call is inconclusive, the potency comes from a doubtful curve fit.

test: qHTS for Inhibitors of TGF-b; details: HepG2 CAGA-GFP TGF-b/SMAD3 reporter, GFP fluorescence, 18 h, TGF-beta stimulated, 500 pg/mL final; series mostly up to 46.1 µM; also: nearly all actives have a fitted effect of over 65% in size
Summary of the method: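 HEPG2 CAGA-GFP reporter cells (1000/well, DMEM with 1% FBS) received compounds, then recombinant TGF-beta at 500 pg/mL final for 18 hours at 37 degrees C. Per-cell GFP summed per well was normalised to unstimulated and stimulated DMSO controls before curve fitting.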
Potency is read from the fitted curve at half-maximal effect; tags tell the direction and shape of the fitted curve.

SMILES	Potency
CC(C)CN(C(=O)CN1C(=O)NC(c2ccccc2)(c2ccccc2)C1=O)C1CCS(=O)(=O)C1 (stereo not drawn)	inactive
CSc1nc2c(c(-c3ccccc3)c1C#N)CCC2	inconclusive: 0.398 µM [inhibitor, partial curve, poor fit]
CCc1ccccc1NC(=O)CN(c1cc(C(F)(F)F)ccc1Cl)S(=O)(=O)c1ccccc1	inconclusive: 22.4 µM [inhibitor, single point]
COc1ccc(-c2nn(C)c3sc(C(=O)NCc4ccco4)cc23)cc1OC	inactive
O=C(Nc1ccc(Br)c(C(F)(F)F)c1)c1ccc(C(F)(F)F)cc1	inconclusive: 10 µM [inhibitor, partial curve, poor fit]
CCOC(=O)c1cnn(CCOC(=O)Cc2cccs2)c1NC(=O)Cc1cccs1	inconclusive: 5.62 µM [inhibitor, full curve, poor fit]
COc1ccccc1Nc1cc(C(=O)NCCCN(C)C2CCCCC2)c2ccccc2n1	inconclusive: 1 µM [inhibitor, full curve, poor fit]
COCc1[nH]c(=S)[nH]c(=O)c1C	inactive
O=C(COc1ccccc1)Nc1cccc(-c2nc3cc4ccccc4cc3[nH]2)c1	inconclusive: 35.5 µM [inhibitor, single point]
Cc1ccc(OC(C)C(=O)N=Nc2c(O)[nH]c3ccc([N+](=O)[O-])cc23)cc1 (stereo not drawn)	inconclusive: 22.4 µM [inhibitor, single point]
COC(=O)c1ccccc1NC(=O)NCc1ccc2c(c1)CCN2C(=O)c1ccccc1	inconclusive: 10 µM [inhibitor, single point]
O=C1CN(C(=O)c2ccc(S(=O)(=O)N3CCCC3)cc2)C(c2ccc(F)cc2)c2cc(Br)ccc2N1 (stereo not drawn)	inactive
Cc1ccc2c(c1)N(C(=O)N1CCC(C(=O)Nc3cccc(F)c3)CC1)CCO2	inconclusive: 4.47 µM [inhibitor, partial curve, poor fit]
CCCc1cc(C(=O)Nc2ccc(C(=O)c3ccc(C)cc3)cc2)n(C)n1	inconclusive: 35.5 µM [inhibitor, single point]
CCn1c(CNC(=O)c2cc(OC)c(OC)c(OC)c2)cc2ccccc21	inactive
CN(Cc1ccccc1)c1nc2c(S(=O)(=O)c3cccc(Cl)c3)nnn2c2ccsc12	inactive
CC1Nc2ncnc(N3CCN(c4ccccc4)CC3)c2N(Cc2ccc(Br)cc2)C1=O (stereo not drawn)	inconclusive: 35.5 µM [inhibitor, single point]
COc1ccc(C(=O)NCc2cn3ccc(C)cc3n2)cc1	inconclusive: 28.2 µM [inhibitor, partial curve, poor fit]
O=C(NCCN1CCc2ccccc2C1)C1CCN(S(=O)(=O)N2CCC3(CC2)OCCO3)CC1	inconclusive: 0.631 µM [inhibitor, partial curve, poor fit]
COc1cc(C2C(C(C)=O)=C(O)C(=O)N2CCN(C)C)ccc1O (stereo not drawn)	inconclusive: 6.31 µM [inhibitor, single point]
Nc1ccn(CC(=O)NCCCc2ccccc2)c(=O)n1	inactive
CN(Cc1cccc(Cl)c1Cl)C(=O)c1cccc(S(=O)(=O)N2CCN(Cc3ccccc3)CC2)c1	active: 8.91 µM

SMILES	Potency
COCCNCC(=O)N1CCCCCC1	inactive
COc1cc(CC(=O)Nc2nc(C)cs2)cc(OC)c1OC	inactive
Cc1ccc(S(=O)(=O)c2nc(-c3cccs3)oc2N2CCC(C)CC2)cc1	inconclusive: 35.5 µM [inhibitor, partial curve, poor fit]
CCCCN1C(Nc2ccccc2)=NC[C@@H]1Cc1ccccc1	inactive
CC1CCCC(NC(=O)CCNC(=O)c2ccccc2Cl)C1C (stereo not drawn)	inconclusive: 2.51 µM [inhibitor, partial curve, poor fit]
O=C(O)/C=C/c1ccc(Cn2ccnc2)cc1	inactive
CN(C)C(=O)c1ccc(S(=O)(=O)NCc2ccc(Cl)cc2)s1	inconclusive: 2.82 µM [inhibitor, full curve, poor fit]
CCOc1cccc(NC(=O)C2CC(=O)N(C)C(=Nc3ccccc3)S2)c1 (stereo not drawn)	inconclusive: 5.62 µM [inhibitor, partial curve, poor fit]
CCOC(=O)C1CCN(C(=O)c2ccc3c(=O)n4c(nc3c2)CCCCC4)CC1	inconclusive: 15.8 µM [inhibitor, single point]
CCOc1c(Br)cc(CNc2ccc(N3CCOCC3)cc2)cc1OC	inconclusive: 0.112 µM [inhibitor, full curve, poor fit]
O=C(CN1CCN(C(=S)NC2CCCC2)CC1)Nc1ccc(Oc2ccccc2)cc1	inconclusive: 14.1 µM [inhibitor, partial curve]
COc1ccc(N/N=C(/N=Nc2nc(C)cc(=O)[nH]2)c2ccccc2)cc1	inconclusive: 14.1 µM [inhibitor, single point]
CC(C)Cc1ccc(S(=O)(=O)N2CCN(C(=O)c3ccco3)CC2)cc1	inconclusive: 10 µM [inhibitor, partial curve, poor fit]
CCCNC(=O)C1(C)CCN(CCC(=O)c2ccc(Br)cc2)C1 (stereo not drawn)	inconclusive: 20 µM [inhibitor, single point]
S=C(NN=Cc1ccccn1)N(Cc1ccccn1)Cc1ccccn1	inconclusive: 6.31 µM [inhibitor, single point]
COc1ccc(-c2c(N)nnc3c2[nH]c2ccccc23)cc1OC	inactive
NC(=S)NN=C1c2ccccc2-c2cc(Br)ccc21	active: 2.82 µM
COC(=O)c1ccc(C2N=C(c3cccs3)CC(c3ccccc3O)N2)cc1 (stereo not drawn)	inconclusive: 22.4 µM [inhibitor, single point]
C[C@H](CO)N1C[C@H](C)[C@@H](CN(C)S(=O)(=O)c2ccc(F)cc2)Oc2ccc(NC(=O)Nc3ccc(C(F)(F)F)cc3)cc2C1=O	inconclusive: 35.5 µM [inhibitor, single point]
O=C(CSc1nc(N2CCCCC2)nc(N2CCCCC2)n1)N1CCN(c2ccccc2)CC1	active: 6.31 µM
O=C(CCCCCn1c(=O)c2sccc2n(CC(=O)Nc2ccccc2F)c1=O)NCc1ccc2c(c1)OCO2	inactive
